In PubChem BioAssay AID1345082 (National Center for Advancing Translational Sciences (NCATS), 2018):
About 4,000 (4.3%) of roughly 94,000 compounds were called active. This list was built around the results that the source calls inconclusive (neither active nor inactive); the mix of calls is not that of the screen. The call rests on the fitted dose curve; in most records, active means well fitted inhibition curve with a large enough effect; inconclusive means small, poorly fitted or top-dose-only effect; inactive means no such curve, though single readings can be large or run the other way. Potencies of inconclusive entries are doubtful fits and often do not repeat.

experiment: Cytotoxic Profiling in NIH 3T3 Cell Line of Diverse Libraries Using Quantitative High-Throughput Screening; settings: NIH 3T3 viability, CellTiter-Glo ATP luminescence, 48-72 h; series mostly up to 96.7 µM; activity change, negative = cytotoxicity: at the top concentration; further: nearly all actives have a fitted effect of over 55% in size
Procedure, shortened: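 Cytotoxicity is measured as loss of cellular ATP: NIH 3T3 cells (400/well) are exposed to compound for 48 or 72 hr at 37 °C, then CellTiter-Glo luminescence is imaged after 10 min at room temperature.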
On the % scale 0 is the no-effect control and ±100 the full control effect; potency means the concentration at half of the fitted maximal effect; tags describe the fitted curve by direction and shape.

SMILES | Potency | activity change, negative = cytotoxicity | outcome
COc1ccc(C(=O)NC[C@H]2C[C@@H]3CCN2C[C@@H]3c2cc(-c3ccc(N(C)C)cc3)nc(C)n2)cc1 | active: 39.8 µM | – | –
COc1ccccc1-c1cc([C@H]2CN3CC[C@H]2C[C@@H]3COC(=O)Nc2ccc(C(C)C)cc2)nc(C)n1 | inconclusive: 17.8 µM [inhibitor, full curve, poor fit] | – | –
Cc1nc(-c2ccco2)cc([C@H]2CN3CC[C@H]2C[C@@H]3CNC2CCOCC2)n1 | inconclusive: 112 µM [inhibitor, single point] | – | –
O=C(Cc1ccc(F)cc1)N1CCN(Cc2ccccc2-c2ccccc2F)CC1 | inconclusive: 44.7 µM [inhibitor, partial curve, poor fit] | – | –
CCCCOC(=O)N1C[C@H](C(=O)OCC)[C@H]2c3ccccc3NC(=O)[C@]21C | – | inactive: -17.7% [at 46.1 µM] | –
COc1cc2c(cc1OCc1ccccc1)N(C(=O)c1cc3ccccc3[nH]1)CC21CCN(C)CC1 | active: 22.4 µM | – | –
CC(=O)c1ccc(NC(=O)NC[C@H]2C[C@@H]3CCN2C[C@@H]3CN2CCC(Cc3ccccc3)CC2)cc1 | inconclusive: 89.1 µM [inhibitor, single point] | – | –
CCOC(=O)[C@H]1CN(C(=O)NCc2ccccc2)[C@]2(C)C(=O)N(CCOC)c3ccccc3[C@H]12 | inconclusive: 35.5 µM [inhibitor, partial curve, poor fit] | – | –
Nc1cccc(-c2cn(C[C@H]3CC4CCN3C[C@@H]4C(=O)NCc3ccccc3)nn2)c1 (some centres not stated) | inconclusive: 35.5 µM [inhibitor, partial curve, poor fit] | – | –
O=C(Nc1ccc2n(c1=O)C[C@H]1C[C@@H]2CN(C(=O)NC2CCCCC2)C1)c1ccco1 | active: 89.1 µM | – | –
CC(C)CN1Cc2ccccc2-n2ccnc2C12CCN(C(=O)c1ccsc1)CC2 | inconclusive: 50.1 µM [inhibitor, partial curve, poor fit] | – | –
COc1cc2c(cc1OCc1ccncc1)NC(=O)C21CCN(c2ncccn2)CC1 | inconclusive: 79.4 µM [inhibitor, partial curve, poor fit] | – | –
COCCNC(=O)[C@H]1CN2CCC1C[C@@H]2Cn1cc(-c2ccc(-c3ccccc3)cc2)nn1 (some centres not stated) | – | inactive: -14.5% | –
CN(C)Cc1cn(C[C@H]2C[C@@H]3CCN2C[C@@H]3C(=O)NC2CC2)nn1 | – | inactive: -0.0172% [at 174 µM] | –
Cc1ncc2c(n1)C[C@@H]1CC[C@H]2N1C(=O)Nc1ccc2c(c1)OCCO2 | – | inactive: 3.72% | –
CCn1cc(CN2CCN(C(=O)Cc3cccs3)CC2)ccc1=O | – | inactive: -14% | –
Cc1cccc(CC(=O)N2[C@H]3CC[C@@H]2c2cnc(-c4ccc(F)cc4)nc2C3)c1 | inconclusive: 25.1 µM [inhibitor, partial curve, poor fit] | – | –
CCCS(=O)(=O)NC[C@H]1C[C@@H]2CCN1C[C@@H]2c1cc(C2CCCC2)nn1C | – | inactive: -27.6% [at 174 µM] | –
O=C1NC2(CCN(Cc3cccnc3)C2)OCc2ccccc21 (configuration not stated) | inconclusive: 100 µM [inhibitor, single point] | – | –
COc1cc2c(cc1OCc1ccccc1)N([S+](=O)([O-])c1cccc(C)c1)CC21CCN(C)CC1 | active: 22.4 µM | – | –
CC(=O)NC[C@H]1C[C@@H]2CCN1C[C@@H]2c1cc(-c2cccs2)nc(C)n1 | inconclusive: 126 µM [inhibitor, partial curve, poor fit] | – | –

SMILES | Potency | activity change, negative = cytotoxicity | outcome
COc1cc2c(cc1OCc1ccccc1)NC(=O)C21CCN(C(=O)C2CCC2)CC1 | inconclusive: 44.7 µM [inhibitor, partial curve, poor fit] | – | –
C=C[C@H]1CN2CC[C@H]1C[C@@H]2CNCc1cccc(C#N)c1 | – | inactive: -1.05% [at 230 µM] | –
Cc1ccc(CN2C[C@@H]3C(C(N)=O)=NO[C@@H]3C2)nc1 | active: 112 µM | – | –
Cc1ccnn1CC(=O)N1C[C@@H](c2ccc3c(c2)OCO3)[C@@H]2[C@H]1C1CCN2CC1 | – | inactive: -21.3% | –
COc1ccccc1-c1cc([C@H]2CN3CC[C@H]2C[C@@H]3CNC(=O)c2ccc(C)cc2)n(C)n1 | inconclusive: 89.1 µM [inhibitor, single point] | – | –
CC(C)CN1Cc2ccccc2-n2ccnc2C12CCN(C(=O)c1ccco1)CC2 | inconclusive: 50.1 µM [inhibitor, partial curve, poor fit] | – | –
COc1ccccc1-c1cc([C@H]2CN3CC[C@H]2C[C@@H]3CNS(=O)(=O)c2ccccc2)n(C)n1 | active: 31.6 µM | – | –
Cc1ccc([C@@H]2CN(C(=O)c3ccco3)[C@@H]3C4CCN(CC4)[C@@H]32)cc1 | – | inactive: -8.11% | –
CCC(CC)c1cc([C@H]2CN3CC[C@H]2C[C@@H]3CNC(=O)COc2ccccc2)nc(-c2ccncc2)n1 | active: 22.4 µM | – | –
COc1ccc(-c2cnc3[nH]cc(CC(=O)N4CCN(C)CC4)c3c2)cc1OC | inconclusive: 35.5 µM [inhibitor, partial curve, poor fit] | – | –
COc1cc2c(cc1OCc1cccnc1)N(C(=O)Cc1cccc(Cl)c1)CC21CCN(CC(=O)O)CC1 | inconclusive: 70.8 µM [inhibitor, partial curve, poor fit] | – | –
CN(CCc1ccccn1)C[C@H]1CN2CC[C@H]1C[C@@H]2CNC(=O)c1ccc(C(F)(F)F)cc1 | inconclusive: 79.4 µM [inhibitor, partial curve] | – | –
Cc1nc(-c2cccs2)cc([C@H]2CN3CC[C@H]2C[C@@H]3CNC(=O)c2ccccc2)n1 | inconclusive: 112 µM [inhibitor, partial curve, poor fit] | – | –
COc1cccc(CN2CCCCCCNC(=O)[C@@H]3CCC[C@@H]32)n1 | – | inactive: -27.4% | –
O=c1c(C2CCCCC2)ccc2n1C[C@H]1C[C@@H]2CN(S(=O)(=O)c2ccccc2)C1 | inconclusive: 112 µM [inhibitor, partial curve] | – | –
COc1ccc(NC(=O)NC[C@H]2C[C@@H]3CCN2C[C@@H]3c2cc(-c3ccc(OC)c(OC)c3)nn2C)cc1 | inconclusive: 56.2 µM [inhibitor, partial curve, poor fit] | – | –
CC(=O)c1ccc(NC(=O)NC[C@H]2C[C@@H]3CCN2C[C@@H]3CN2CCCCC2)cc1 | inconclusive: 112 µM [inhibitor, partial curve, poor fit] | – | –
Cc1cccc(OCC(=O)N2[C@H]3CC[C@@H]2c2cnc(-c4ccc(F)cc4)nc2C3)c1 | inconclusive: 44.7 µM [inhibitor, partial curve, poor fit] | – | –
O=[S+]1([O-])NC2(CCN(CC3CCCCC3)C2)COc2ccncc21 (configuration not stated) | – | inactive: 0.988% | –
O=c1cccc2n1CC1CC2CN(Cc2cc3n(n2)CCNC3)C1 (configuration not stated) | – | inactive: -11.8% | –
COc1cccc(CC(=O)N2CCCCCC2CN2CCCC2)c1 (configuration not stated) | inconclusive: 50.1 µM [inhibitor, partial curve, poor fit] | – | –

SMILES | Potency | activity change, negative = cytotoxicity | outcome
CN1c2ncccc2CN(Cc2ccccc2)CC[C@H]1CO | inconclusive: 28.2 µM [inhibitor, full curve, poor fit] | – | –
CCC(CC)c1cc([C@H]2CN3CC[C@H]2C[C@@H]3CNS(C)(=O)=O)nc(-c2ccncc2)n1 | – | inactive: -14.8% | –
COc1ccccc1-c1cc([C@H]2CN3CC[C@H]2C[C@@H]3CNS(=O)(=O)c2ccc(NC(C)=O)cc2)nc(C)n1 | inconclusive: 70.8 µM [inhibitor, single point] | – | –
CCOC(=O)[C@H]1CN([S+](=O)([O-])c2cccs2)[C@]2(C)C(=O)N(CC3CC3)c3ccccc3[C@H]12 | inconclusive: 31.6 µM [inhibitor, partial curve, poor fit] | – | –
O=C1NCCCCCCN(Cc2ccncc2F)[C@H]2CCC[C@@H]12 | inconclusive: 70.8 µM [inhibitor, single point] | – | –
O=C1NC2(Cc3ccccc31)CN(Cc1ccncc1)C2 | – | inactive: -1.85% [at 138 µM] | –
COc1cc2c(cc1OCc1ccccc1)NC(=O)C21CCN(c2ncc(F)cn2)CC1 | inconclusive: 56.2 µM [inhibitor, partial curve, poor fit] | – | –
O=C(NC[C@H]1C[C@@H]2CCN1C[C@@H]2CN1CCN(c2ccc(F)cc2)CC1)Nc1cccc(F)c1 | active: 22.4 µM | – | –
Cc1cccc(OCC(=O)N2CCN(Cc3ccc(=O)n(C)c3)CC2)c1 | – | inactive: -10.7% | –
FC(F)(F)CN1C2CCC1CN(c1nc(Cl)nc3nc[nH]c13)C2 | inconclusive: 63.1 µM [inhibitor, partial curve, poor fit] | – | –
Cc1nc(-c2ccco2)cc([C@H]2CN3CC[C@H]2C[C@@H]3CNC(=O)C(C)(C)C)n1 | – | inactive: -18.6% [at 174 µM] | –
C=C[C@H]1CN2CC[C@H]1C[C@@H]2CNC(=O)Nc1ccc(OC(F)(F)F)cc1 | inconclusive: 89.1 µM [inhibitor, partial curve] | – | –
COc1cc2c(cc1CCc1ccccc1)N(C(=O)CC(C)C)CC21CCN(C(C)=O)CC1 | inconclusive: 0.562 µM [inhibitor, full curve, poor fit] | – | –
CC(C)(C)c1ccc(-c2cn(C[C@H]3CC4CCN3C[C@@H]4C(=O)Nc3ccccc3)nn2)cc1 (some centres not stated) | active: 28.2 µM | – | –
O=C1NC[C@H]2CN(Cc3cccs3)CCN12 | – | inactive: -3.07% [at 174 µM] | –
CSc1nccc(N2CCC3(CCCN(CC4CC4)C3)C2)n1 (configuration not stated) | – | inactive: -4.53% | –
COc1cc2c(cc1OCC1CC1)NC(=O)C21CCN(C(=O)C2CCC2)CC1 | inconclusive: 89.1 µM [inhibitor, partial curve] | – | –
Cc1ncc2c(n1)C[C@@H]1CC[C@H]2N1S(=O)(=O)c1c(C)noc1C | – | – | inactive
O=C(NC[C@H]1C[C@@H]2CCN1C[C@@H]2CN1CCC(Cc2ccccc2)CC1)Nc1ccccc1 | inconclusive: 56.2 µM [inhibitor, partial curve, poor fit] | – | –
C#C[C@H]1CN2CC[C@H]1C[C@@H]2COC(=O)Nc1ccc(Br)cc1 | inconclusive: 100 µM [inhibitor, partial curve] | – | –
